Here are results for 88 compounds from article PMC4336329 (PLoS ONE, 2015).

The campaign covered roughly 310,000 compounds. About 14,000 (4.5%) showed an effect of 50% or more. Effects have a minus sign here. Some of the results follow.
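Also: peak tail current of the secondary pulse compared with the same well before compound.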

Sequence of human ether-à-go-go-related gene (hERG) potassium channel (Q12809 whole entry, looked up): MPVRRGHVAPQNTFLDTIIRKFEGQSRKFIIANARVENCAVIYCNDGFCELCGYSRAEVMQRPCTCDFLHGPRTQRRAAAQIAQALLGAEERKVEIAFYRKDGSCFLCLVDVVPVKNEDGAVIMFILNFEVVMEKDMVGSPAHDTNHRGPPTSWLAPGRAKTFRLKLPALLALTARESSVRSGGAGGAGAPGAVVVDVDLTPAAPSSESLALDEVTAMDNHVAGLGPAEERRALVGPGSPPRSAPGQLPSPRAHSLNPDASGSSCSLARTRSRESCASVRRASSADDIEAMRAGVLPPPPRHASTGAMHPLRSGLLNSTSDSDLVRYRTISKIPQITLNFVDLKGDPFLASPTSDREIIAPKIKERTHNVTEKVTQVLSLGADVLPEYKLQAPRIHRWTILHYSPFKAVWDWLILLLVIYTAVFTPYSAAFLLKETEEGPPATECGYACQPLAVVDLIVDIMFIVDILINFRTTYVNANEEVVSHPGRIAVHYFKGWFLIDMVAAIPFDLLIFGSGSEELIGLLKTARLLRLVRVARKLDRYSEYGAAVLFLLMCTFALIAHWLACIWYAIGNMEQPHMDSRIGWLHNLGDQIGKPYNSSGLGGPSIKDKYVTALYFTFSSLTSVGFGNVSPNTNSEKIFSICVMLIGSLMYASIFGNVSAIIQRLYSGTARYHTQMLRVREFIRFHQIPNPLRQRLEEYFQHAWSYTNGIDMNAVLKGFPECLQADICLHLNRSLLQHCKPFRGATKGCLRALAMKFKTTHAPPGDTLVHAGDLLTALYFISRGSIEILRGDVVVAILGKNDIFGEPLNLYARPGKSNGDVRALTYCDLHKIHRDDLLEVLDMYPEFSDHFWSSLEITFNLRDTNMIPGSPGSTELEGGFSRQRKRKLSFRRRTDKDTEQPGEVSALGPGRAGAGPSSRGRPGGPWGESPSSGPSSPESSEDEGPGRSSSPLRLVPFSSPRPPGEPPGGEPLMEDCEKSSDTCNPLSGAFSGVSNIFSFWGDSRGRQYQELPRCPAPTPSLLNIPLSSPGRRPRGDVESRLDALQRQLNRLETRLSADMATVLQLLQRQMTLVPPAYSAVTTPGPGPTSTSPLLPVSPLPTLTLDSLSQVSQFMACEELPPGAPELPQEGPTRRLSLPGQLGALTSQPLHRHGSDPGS

This assay concerns the target human ether-à-go-go-related gene (hERG) potassium channel (human, UniProt Q12809). The assay can be described thus: primary screen, population patch clamp on CHO cells stably expressing hERG.
With `CC(C)OCCCNC(=O)c1ccc(CS(=O)(=O)Cc2ccccc2F)o1`, the “hERG current change (%, negative = inhibition) at 10uM” value was 8.07%.
Regarding `CCSc1nc(=S)cc(C)[nH]1`, the “hERG current change (%, negative = inhibition) at 10uM” value is on record as 17.9%.
The figure for `Cc1ccc(C(O)(c2ccccc2)c2ccccc2C(C)N(C)C)c(C)c1` (stereo not shown) is 1.55%.
As to `CCOC(=O)c1sc2ncn(C(CC)C(=O)OCC)c(=O)c2c1C` (stereo not shown), the “hERG current change (%, negative = inhibition) at 10uM” value came to 1.12%.
For the compound `Cl.O=C(CCN1C(=O)c2ccccc2S1(=O)=O)N1CCN(c2ccccc2)CC1`, the “hERG current change (%, negative = inhibition) at 10uM” value turned out to be 2.96%.
To `O=C(CCCc1nc2ccccc2s1)N1CCN(c2ccccc2F)CC1` belongs -31.3%; to `CCOc1ccccc1NC(=O)C1C2C=CC(O2)C1C(=O)O` (stereo not shown), 8.34%.
To `O=C1CC(c2ccc3ccccc3c2)NN1` (stereo not shown) belongs -0.17%; to `Cn1c2ccccc2c2ncn(CCC3=CCCCC3)c(=O)c21`, -16%.
To `O=C(NCc1ccc(Cl)s1)C1CCC(=O)N(CCc2cccc(F)c2)C1` (stereo not shown) belongs -60.2%; to `CCOC(=O)c1ccc(NC(=O)CC2C(=O)N(c3ccccc3)C(=O)N2CCCOC)cc1` (stereo not shown), -4.49%.
On to `Cc1ccc(C(=O)CCS(=O)(=O)c2ccc(Br)cc2)cc1`, for which the “hERG current change (%, negative = inhibition) at 10uM” value is reported as 27.6%.
To `CCn1c(SCC(=O)N2CCCCC2)nc2c1c(=O)n(C)c(=O)n2C` belongs 14.3%; to `Cc1cccc(N2CCN(C(=O)Cn3cnc4c3c(=O)n(C)c(=O)n4C)CC2)c1C`, -26%.
Take `NC(=O)[C@@H]1CCCCNc2c(F)cc([N+](=O)[O-])cc2C(=O)N[C@@H](CC(=O)O)C(=O)NCC(=O)N1`: the “hERG current change (%, negative = inhibition) at 10uM” value stood at 4.96%.
To `Cc1cc(=O)n(CC(=O)NCCN2CCOCC2)c2c1c(C)nn2-c1ccccc1` belongs 11.9%; to `Cc1cc(=O)oc2c(CN3CC(C)OC(C)C3)c(O)c(Cl)cc12` (stereo not shown), 14.5%; to `CCCOc1cccc(C2C(C(=O)c3ccco3)=C(O)C(=O)N2CCCn2ccnc2)c1` (stereo not shown), 16.8%.
The figure for `O=[N+]([O-])c1ccc(Cn2cc(-c3cccc(C(F)(F)F)c3)nn2)cc1` is -24.9%; for `O=C(CCCc1ccccc1)NCCS(=O)(=O)N1CCN(c2ccc(F)cc2)CC1` it is -39.3%.
To `CCn1c(CCNC(=O)c2ccc(Cl)cc2)nnc1SCC(=O)NC1CCCC1` belongs -19.6%; to `COc1ccccc1/C=C1\SC(=S)N(NS(=O)(=O)c2ccccc2)C1=O`, 8.33%.
`Cc1ccc(C)c(N2CCN(C(=O)C3CCN(c4nnc(N5CCCC5=O)s4)CC3)CC2)c1`: the “hERG current change (%, negative = inhibition) at 10uM” value was -6.06%.
To `CCCCCOC(=O)Cn1c(=O)oc2ccc(C)cc21` belongs -10.6%; to `COc1cc(/C=C2\SC(=O)NC2=O)ccc1Oc1ccc([N+](=O)[O-])cn1`, -10.4%.
`CC(C)C(=O)NC(NC(=S)NC1CCS(=O)(=O)C1)C(Cl)(Cl)Cl` (stereo not shown): the “hERG current change (%, negative = inhibition) at 10uM” value worked out at 13.3%.
For `Cn1c(SCC(N)=O)nnc1C1CCN(C(=O)NC2CCCCC2)CC1`, the “hERG current change (%, negative = inhibition) at 10uM” value came out at 15.1%.
The figure for `CCOC(=O)C1CCN(S(=O)(=O)c2ccc3c(ccn3C)c2)CC1` is -0.0195%; for `CCOCCCn1c(SCC(=O)NCc2ccc3c(c2)OCO3)nc2ccccc2c1=O` it is -59%.
`CCOC(=O)CNC(=O)c1nn(-c2ccc(OCC)cc2)c(=O)c2ccccc12`: the “hERG current change (%, negative = inhibition) at 10uM” value is -13.7%.
With `CCOC(=O)c1cccc(NC(=O)C2CCCN(S(=O)(=O)c3cnc[nH]3)C2)c1` (stereo not shown), the “hERG current change (%, negative = inhibition) at 10uM” value is listed as -5.05%.
The figure for `COc1cc2c3c(c1OC)C1(C=CC(=O)C=C1)CC3N(C(=O)c1ccccc1)CC2` (stereo not shown) is -18.6%; for `Fc1ccc(C2Nc3cccc4cccc(c34)N2)cc1` it is 30.5%; for `COc1cc(COc2ccc(-c3nnco3)cc2)ccc1OC(F)F` it is 30.7%.
To `CCOC(=O)CNS(=O)(=O)CCN1C(=O)c2ccccc2C1=O` belongs 1.65%; to `CCn1c(N)c(C(=O)COC(=O)CCc2nc3ccccc3c(=O)[nH]2)c(=O)[nH]c1=O`, 2.58%.
To `COc1ccc(N(CC(=O)N/N=C/c2cccnc2)S(=O)(=O)c2ccc(C)cc2)cc1OC` belongs -14.2%; to `Cc1ccc(NC(=O)CC(=O)c2ccccc2)cc1C`, 7.56%.
As to `O=C(Nc1ccnn1C1CCN(Cc2ccccn2)CC1)c1cccc(F)c1`, the “hERG current change (%, negative = inhibition) at 10uM” value was -7.3%.
To `Cn1c(/C(C#N)=C(\O)c2ccc(S(=O)(=O)N3CCCCC3)cc2)nc2ccccc21` belongs 12.1%; to `Cc1cc(C)cc(NC(=O)c2cc(C)nn2C)c1`, 0.0741%; to `CC1Cc2nc(SCC(=O)Nc3ccc(F)cc3F)n(C)c(=O)c2S1` (stereo not shown), -22%.
To `Cc1ccc2c(=O)c(CN3CCCCCC3)c(C)[nH]c2c1C` belongs -6.86%.
To `Cc1csc(NC(=O)CSc2nncc(=O)n2N)n1` belongs 19%; to `O=C(NNC(=O)c1cccnc1)c1ccncc1`, 14.1%; to `CCN1C(=O)C(CC(=O)Nc2ccc(OC)cc2)N(CCCN2CCN(c3ccc(OC)cc3)CC2)C1=S` (stereo not shown), -68%.
With `S=C(NC1CCCCC1)N1CCN(Cc2ccccc2Cl)CC1`, the “hERG current change (%, negative = inhibition) at 10uM” value is 9.61%.
To `CCc1ccc(N2CC(C(=O)Nc3ccc(S(=O)(=O)N4CCCCC4)cc3)CC2=O)cc1` (stereo not shown) belongs 5.45%.
Take `CCOc1ccccc1C(=O)NC(C(=O)Nc1cccc(S(N)(=O)=O)c1)C(C)C` (stereo not shown): the “hERG current change (%, negative = inhibition) at 10uM” value is reported as 3.21%.
Consider `N#Cc1c(NC2CCCCC2)nc(-c2ccco2)c2c1CCCC2`, for which the “hERG current change (%, negative = inhibition) at 10uM” value stood at 21.2%.
The figure for `C=CCN1C(=O)C(Cc2cccc(Cl)c2)SC1=Nc1ccc(C(=O)O)cc1` (stereo not shown) is -10.8%; for `CC(CNS(=O)(=O)c1ccccc1)(c1ccccc1)N1CCOCC1.Cl` (stereo not shown) it is 6.84%; for `COC(=O)CSc1nc2c(c(-c3ccc(C)o3)c1C#N)CCCC2` it is -1.42%.
Consider `O=c1[nH]c2ccc(NC(=S)Nc3ccc(Cl)cc3Cl)cc2[nH]1`, for which the “hERG current change (%, negative = inhibition) at 10uM” value was 8.1%.
To `O=C(O)c1ccc(-n2nnnc2Oc2ccccc2C(=O)N2CCOCC2)cc1` belongs 7.52%.
The figure for `Cn1c(COc2ccc(F)cc2)nc2ccccc21` is -0.759%.
In the case of `Cc1cc(NC(=O)COC(=O)C2CC(=O)N(c3ccccc3Cl)C2)no1` (stereo not shown), the “hERG current change (%, negative = inhibition) at 10uM” value was found to be 21.2%.
As for `COc1ccc(OCC(=O)N2CCN(C(=O)c3ccc(F)cc3)CC2)cc1`, the “hERG current change (%, negative = inhibition) at 10uM” value is given as -20.2%.
The figure for `CCCn1c(CNC(=O)c2ccccc2)nc2ccccc21` is -17.7%; for `O=C(Nc1cccc(Br)c1)c1ccc2snnc2c1` it is 1.34%; for `O=C(CC12CC3CC(CC(C3)C1)C2)N/N=C/c1ccc([N+](=O)[O-])o1` it is -15.7%.
To `COc1ccc(C(C(=O)NCC2CCCO2)N(Cc2ccc(F)cc2)C(=O)CNC(=O)c2ccco2)cc1OC` (stereo not shown) belongs 20.6%; to `CN1CCN(C(CNS(=O)(=O)c2ccc(Br)cc2)c2ccc3c(c2)OCO3)CC1` (stereo not shown), -79.8%.
To `COCCN(Cc1ccccc1)C(=O)C1CCN(S(=O)(=O)c2ccc(OC)c(OC)c2)CC1` belongs -8.3%.
Regarding `Cc1nc2c3ccccc3nc(NNC(=O)CCC(=O)N3CCN(c4ccccc4)CC3)n2n1`, the “hERG current change (%, negative = inhibition) at 10uM” value is -28.5%.
The figure for `O=C1CSC(c2ccc(F)cc2)N1c1ccccc1F` (stereo not shown) is 3.29%; for `O=C(Nc1ccccc1N1CCCCC1)c1cccc([N+](=O)[O-])c1` it is 9.03%; for `COc1ccc(C(=O)COC(=O)CCN=C2NS(=O)(=O)c3ccccc32)c(OC)c1` it is -30.1%.
To `CC(C)CC[n+]1ccn(-c2nc3ccccc3nc2[N-]S(=O)(=O)c2ccc(Cl)cc2)c1` belongs -2.84%.
The figure for `Cc1ccc(CONC(=O)c2ccc(C)cc2)cc1` is -3.04%; for `Cc1cn(-c2ccc(Br)cc2)[nH]c1=O` it is 8.3%.
With `Cl.Clc1ccc(CNCCCSc2ncccn2)cc1`, the “hERG current change (%, negative = inhibition) at 10uM” value is -21.3%.
In the case of `CCCCOC(=O)Nc1ccccc1C(=O)N1CCCC1`, the “hERG current change (%, negative = inhibition) at 10uM” value was 0.12%.
To `CC1Cc2cc(S(=O)(=O)N3CCCC(C(=O)N4CCCCC4)C3)ccc2N1C(=O)C1CC1` (stereo not shown) belongs -4.84%; to `O=C(NCC(O)c1ccc([N+](=O)[O-])cc1)C1CCCCC1` (stereo not shown), 7.94%; to `O=C(NOC(=O)c1cc(Br)ccc1Cl)c1cccs1`, 6.33%.
In the case of `COc1ccc(C)cc1S(=O)(=O)Nc1ccncc1`, the “hERG current change (%, negative = inhibition) at 10uM” value was 3.79%.
The figure for `CC(C)C(NC(=O)c1ccc([N+](=O)[O-])cc1Cl)C(=O)N1CCCC1` (stereo not shown) is -4.21%.
To `Cc1cccc(N2CCN(C(=S)c3ccc(-c4ccccc4[N+](=O)[O-])o3)CC2)c1` belongs 13.3%; to `O=C(O)c1ccccc1C(=O)Nc1nccs1`, 4.17%; to `CC(C)C(OC(=O)c1cc2sccc2n1C)C(=O)NCC1CCCO1` (stereo not shown), -7.71%.
To `Cc1ccc(NC(=O)C2CC=CCC2C(=O)N2CCCCC2)cc1` (stereo not shown) belongs -8.01%; to `Cc1ccc(C2C3=C(CC(C)(C)CC3=O)Nc3onc(C)c32)cc1` (stereo not shown), -9.98%; to `COc1ccc(C(=O)Nc2cccc3nc(C)ccc23)c(OC)c1`, -0.00572%.
As for `CCn1c(SCC(=O)Nc2cccc(C)c2)nc2c(c1=O)SC(C)C2` (stereo not shown), the “hERG current change (%, negative = inhibition) at 10uM” value was -25.1%.
To `Cn1c(CNc2cccc(Cl)c2)nnc1SCC(=O)OC1CCCCC1` belongs -34.1%; to `Cc1oc2c(c1C(=O)NCc1ccccc1)CCCC2`, 3.76%; to `CCCC12CN3CCN(CC(C3)/C1=N\NC(=O)c1ccccc1N)C2`, -4.19%.
